In publication PMC4336329 (PLoS ONE, 2015):
Screen size: about 310,000 compounds; about 14,000 (4.5%) showed an effect of 50% or more. The effect is printed as a negative number. The list shows a part of the results.

The compounds below were run against human ether-à-go-go-related gene (hERG) potassium channel (human, UniProt Q12809) (assay: primary screen, population patch clamp on CHO cells stably expressing hERG).
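Note: peak tail current of the secondary pulse compared with the same well before compound.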

Chain of human ether-à-go-go-related gene (hERG) potassium channel (Q12809 whole entry, looked up): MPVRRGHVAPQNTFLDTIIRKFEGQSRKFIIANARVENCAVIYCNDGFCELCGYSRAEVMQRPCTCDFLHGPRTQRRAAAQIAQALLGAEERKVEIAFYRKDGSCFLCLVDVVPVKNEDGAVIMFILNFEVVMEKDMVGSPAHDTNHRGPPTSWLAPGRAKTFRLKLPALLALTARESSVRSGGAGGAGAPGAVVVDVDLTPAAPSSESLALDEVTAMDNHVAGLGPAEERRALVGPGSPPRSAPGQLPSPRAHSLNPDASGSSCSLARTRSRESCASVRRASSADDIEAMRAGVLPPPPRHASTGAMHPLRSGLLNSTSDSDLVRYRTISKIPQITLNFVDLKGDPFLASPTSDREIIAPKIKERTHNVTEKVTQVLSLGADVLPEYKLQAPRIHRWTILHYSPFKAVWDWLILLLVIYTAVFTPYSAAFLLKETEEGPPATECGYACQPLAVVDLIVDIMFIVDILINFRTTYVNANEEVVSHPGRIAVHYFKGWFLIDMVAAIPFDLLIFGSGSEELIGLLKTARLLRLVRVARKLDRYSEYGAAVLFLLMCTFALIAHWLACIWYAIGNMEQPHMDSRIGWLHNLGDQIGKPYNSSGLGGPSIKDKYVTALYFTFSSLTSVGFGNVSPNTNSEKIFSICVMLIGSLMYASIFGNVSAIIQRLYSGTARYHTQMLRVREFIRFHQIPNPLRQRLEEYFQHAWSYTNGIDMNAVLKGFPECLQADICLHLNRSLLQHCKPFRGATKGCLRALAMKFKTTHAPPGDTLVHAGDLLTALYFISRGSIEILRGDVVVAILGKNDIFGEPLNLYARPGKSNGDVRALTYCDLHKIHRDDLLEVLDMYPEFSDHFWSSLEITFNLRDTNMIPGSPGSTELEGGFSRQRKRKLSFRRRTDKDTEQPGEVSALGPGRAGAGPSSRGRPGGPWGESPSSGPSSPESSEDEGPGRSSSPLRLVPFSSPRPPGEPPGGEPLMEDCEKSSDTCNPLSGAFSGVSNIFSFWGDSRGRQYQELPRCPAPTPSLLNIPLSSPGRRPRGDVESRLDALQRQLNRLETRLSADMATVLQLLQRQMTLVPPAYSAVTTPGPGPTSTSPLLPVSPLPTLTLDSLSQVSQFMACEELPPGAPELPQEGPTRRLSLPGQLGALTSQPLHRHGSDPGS

Row | Structure (SMILES) | hERG current change (%, negative = inhibition) at 10uM [%]
1 | O=C(CSc1nc2c(c(=O)n1-c1ccc(Cl)cc1)SCC2)Nc1nccs1 | 5.97
2 | CCOC(=O)COc1coc(CN2CCN(c3ccc(F)cc3)CC2)cc1=O | -19.4
3 | CCOC(=O)c1cc2nc(-c3ccccc3)cc(C)n2n1 | 5.61
4 | CCC(C(=O)OCC(=O)NC(=O)NC(C)(C)C)c1ccccc1 (stereo not shown) | 33.4
5 | N#CCc1c(C#N)c(N)nc(N2CCN(Cc3ccc4c(c3)OCO4)CC2)c1C#N | -27.2
6 | O=C(CN(C(=O)C1CSC(=O)C1)c1cccc(F)c1)NC1CCCC1 (stereo not shown) | 20.5
7 | CCOc1cccc(-c2nc3c(s2)CCc2onc(-c4cccc([N+](=O)[O-])c4)c2-3)c1 | 11.4
8 | Cc1ccc(-n2c(SCC(=O)O)nc3sc4c(c3c2=O)C(C)CCC4)cc1 (stereo not shown) | 5.93
9 | CCOC(=O)c1ccc(NC(=O)CSc2nnc(-c3ccncc3)n2C)cc1 | -26.8
10 | CCOC(=O)CSc1nc2c(sc(=S)n2Cc2ccco2)c(=O)n1-c1ccc(F)cc1 | -9.25
11 | Cc1cc(C)c2c(N)c(C(=O)c3ccccc3Cl)sc2n1 | 18.5
12 | Nc1nccnc1C(=O)OCC(=O)Nc1ccc2[nH]c(=O)[nH]c2c1 | 17
13 | C/C(=N/NC(=O)CNC(=O)c1ccco1)c1ccco1 | 2.11
14 | O=C(CN1CCC(n2nnc3cc(F)ccc32)CC1)NC1CCCCC1 | -32.8
15 | CC1CCc2cc(F)ccc2N1S(=O)(=O)c1ccc(F)cc1 (stereo not shown) | -16.4
16 | Cc1ccc(Nc2nc(-c3ccc(F)cc3)cs2)nc1 | 17.1
17 | Cc1ccccc1/[N+]([O-])=C/c1cccs1 | 13.9
18 | Cc1ccccc1C(=O)N1CCN(S(=O)(=O)c2cccs2)CC1 | 5.3
19 | CCOC(=O)c1ccc(NC(=S)NCc2ccccc2)cc1 | 17.3
20 | C=CCOc1c(OC)cc(Cl)cc1C1NC(=O)NC(C)=C1C(C)=O (stereo not shown) | 5.86

Row | Structure (SMILES) | hERG current change (%, negative = inhibition) at 10uM [%]
21 | COc1ccc(CC(=O)Nc2cccc(-c3ccc4nncn4n3)c2)cc1OC | 5.97
22 | CC1CCCCN1C(=O)COc1ccc2ccc(=O)oc2c1 (stereo not shown) | -0.695
23 | O=C(c1cccs1)N(Cc1cccc(Cl)c1)C1CCS(=O)(=O)C1 (stereo not shown) | -52
24 | CC(=O)c1ccc(OCCCC(=O)Nc2cccc(-c3nn[nH]n3)c2)cc1 | 11.6
25 | O=C(Nc1cc(S(=O)(=O)N2CCOCC2)ccc1O)c1ccc(NS(=O)(=O)c2ccc(Cl)s2)cc1 | 6.26
26 | COc1ccc(S(=O)(=O)N2CCOCC2)cc1NC(=O)COC(=O)CCOc1ccc(C)cc1 | -34
27 | C=CCn1c(=O)c(C(=O)Nc2ccc(C)cn2)c(O)c2ccccc21 | 15.8
28 | Oc1ccc(C(=S)N2CCN(Cc3ccccc3)CC2)cc1 | -5.46
29 | Cc1ccc(N2C(=O)C3C(C2=O)C2C=CC3C23CC3)c([N+](=O)[O-])c1 (stereo not shown) | -5.47
30 | COc1ccc(C(C#N)c2cnccn2)cc1OC (stereo not shown) | 0.00978
31 | COCCNC(=O)CSc1ccccc1C(=O)NC1CCSc2ccccc21 (stereo not shown) | -1.44
32 | Cc1ccc(-c2nc(=O)[nH]c3ccc(Br)cc23)cc1 | -1.51
33 | Nc1nc(N2CCOCC2)cc(=O)[nH]1 | 11.1
34 | O=C(NCCCCl)C1CC(=O)N(CCc2ccc(F)cc2)C1 (stereo not shown) | 8.74
35 | Cc1nn(CC(O)COc2ccc3c(c2)CCC3)c(C)c1C (stereo not shown) | -5.21
36 | COCCCNC(=O)c1cn(C)c(=O)c2c1c1ccccc1n2C | 5.53
37 | CCCc1ccc(OCc2ccc(C(=O)NCc3cccnc3)o2)c(OC)c1 | -48.4
38 | O=C(O)CCN1/C(=C/C=Nc2ccccc2)Oc2ccccc21 | -14.2
39 | CCOc1ncccc1C(=O)OCCN1C(=O)c2ccccc2C1=O | -9.65
40 | O=C(c1ccco1)N1CCN(c2ncnc3c2cnn3-c2ccccc2)CC1 | -64.5

Row | Structure (SMILES) | hERG current change (%, negative = inhibition) at 10uM [%]
41 | COc1ccc(-c2cc(C(=O)N3CCN(C(c4ccccc4)c4ccccc4)CC3)no2)cc1 | 15.7
42 | CCc1ccc[n+](-c2[nH]c(=O)sc2/C=N/N=C(\N)[O-])c1 | -10
43 | CCCCCC#CCC#CCC#CCC#CCCCC(=O)O | -4.57
44 | CC(=O)Oc1cc2oc(=O)cc(C)c2cc1OC(C)=O | -5.64
45 | O=C(c1ccc(S(=O)(=O)N2CCCCC2)cc1)N1CCCC(C(F)(F)F)C1 (stereo not shown) | -12.3
46 | COCCOc1cc(Nc2nnc(C(F)(F)F)s2)c(Cl)cc1Cl | -6.54
47 | COc1ccc(CC(=O)Nc2ccc(-c3noc(-c4ccc(Cl)cc4)n3)cc2)cc1 | 6.85
48 | COc1ccc(OCc2nc(N)nc(Nc3ccccc3OC)n2)cc1 | 9.46
49 | O=C(Nc1cccc(Cl)c1)c1cc2c(=O)n3ccccc3nc2s1 | -5.71
50 | COc1cc(/C=N/NC(=O)CNc2n[nH]c(=O)[nH]c2=O)ccc1O | -6.93
51 | Nc1ccc(N2CCOCC2)c(Cl)c1 | 1.49
52 | Cc1cc(Cl)c(S(=O)(=O)Nc2ccc(Cl)cn2)cc1OCC(N)=O | -2.03
53 | CCc1c2ccccc2nn1-c1ccccc1C(=O)C(C)=O | 6.31
54 | Cc1ccc(N2C(=O)CC(C)CC2=O)cc1 | 21.2
55 | Cc1cc(=O)n(Cc2ccccc2)c(O)c1C#N | 18.9
56 | Nc1nc(-c2ccccc2)nc2sc3c(c12)CCCC3 | 11.7
57 | C/C(=N/NS(=O)(=O)c1ccc(C)cc1C)c1c[nH]c2ccccc12 | 16.5
58 | COc1ccc(CCn2c(NN=C(C)C)nc3c2c(=O)[nH]c(=O)n3C)cc1 | 13.2
